# Marks after values point to notes of the source that are not given here.
# Key:
# [1] = test system: S. epidermidis (095-2777A); assay type: cell-based
# S. pyogenes = assay type: cell-based; details: S. pyogenes (117-1612A)
# [2] = test system: Coagulase-neg. staphylococci; test: MBC determination (CLSI), MBC/MIC ratio; details: Coagulase-neg. staphylococci (5)
# S. pneumoniae = assay type: cell-based; details: S. pneumoniae (075-241B)
# [3] = test system: Viridans group streptococci; test: MBC determination (CLSI), MBC/MIC ratio; details: Viridans group streptococci (5)
# [4] = test system: S. aureus ATCC 25923 phagocytosed by THP-1 macrophages; assay type: cell-based
# Enterococcus spp. = test: MBC determination (CLSI), MBC/MIC ratio; details: Enterococcus spp. (5)
# [5] = test system: β-haemolytic streptococci (BHS); test: organism not typed
# S. aureus ATCC 25923 = assay type: cell-based
# [6] = test system: β-haemolytic streptococci; test: MBC determination (CLSI), MBC/MIC ratio; details: β-haemolytic streptococci (5)
# [7] = test system: coagulase-negative staphylococci; details: CoNS (100)
# S. aureus = test: MBC determination (CLSI), MBC/MIC ratio; details: S. aureus (10)
# E. faecalis (ATCC 29212) = assay type: cell-based
# [8] = test system: β-haemolytic streptococci (BHS); details: BHS (100)
# S. mitis (112-1885A) = assay type: cell-based
# THP-1 macrophages = test: cellular accumulation (microbiological assay)
# [9] = test system: S. aureus (ATCC 25923) in THP-1 macrophages; assay type: cell-based; details: 4-mg/liter concentration
# S. aureus (ATCC 25923) = assay type: cell-based; details: broth, 4-mg/liter concentration
smiles,measurement,setting,value
"CC[C@H]1OC(=O)[C@H](C)C(=O)[C@H](C)[C@@H](O[C@@H]2O[C@H](C)C[C@H](N(C)C)[C@H]2O)[C@](C)(OC)C[C@@H](C)C(=O)[C@H](C)[C@H]2N(CCCCn3cnc(-c4cccnc4)c3)C(=O)O[C@]12C [TEL, telithromycin]",Antimicrobial activity (time kill curve),[1],Static
same,Antimicrobial activity (time kill curve),S. pyogenes,Cidal at 8X only (slow killing)
same,No. of strains with MBC/MIC value of: 1,[2],0
same,No. of strains with MBC/MIC value of: 2,[2],0
same,No. of strains with MBC/MIC value of: 4,[2],0
same,No. of strains with MBC/MIC value of: 8,[2],0
same,No. of strains with MBC/MIC value of: 16,[2],2
same,No. of strains with MBC/MIC value of: ≧32,[2],3
same,Antimicrobial activity (time kill curve),S. pneumoniae,Static
same,No. of strains with MBC/MIC value of: 1,[3],2
same,No. of strains with MBC/MIC value of: 2,[3],1
same,No. of strains with MBC/MIC value of: 4,[3],1
same,No. of strains with MBC/MIC value of: 8,[3],0
same,No. of strains with MBC/MIC value of: 16,[3],0
same,No. of strains with MBC/MIC value of: ≧32,[3],1
same,Cs,[4],1.04 ×MIC
same,EC50,[4],0.097 ×MIC
same,No. of strains with MBC/MIC value of: 1,Enterococcus spp.,0
same,No. of strains with MBC/MIC value of: 2,Enterococcus spp.,0
same,No. of strains with MBC/MIC value of: 4,Enterococcus spp.,0
same,No. of strains with MBC/MIC value of: 8,Enterococcus spp.,0
same,No. of strains with MBC/MIC value of: 16,Enterococcus spp.,0
same,No. of strains with MBC/MIC value of: ≧32,Enterococcus spp.,5
same,MIC50,[5],0.03 µg/mL
same,MIC90,[5]; BHS (100),0.12 µg/mL
same,EC50,S. aureus ATCC 25923,0.46 ×MIC
same,Emax,S. aureus ATCC 25923,−1.00 log10 CFU
same,No. of strains with MBC/MIC value of: 1,[6],0
same,No. of strains with MBC/MIC value of: 2,[6],1
same,No. of strains with MBC/MIC value of: 4,[6],1
same,No. of strains with MBC/MIC value of: 8,[6],1
same,No. of strains with MBC/MIC value of: 16,[6],0
same,No. of strains with MBC/MIC value of: ≧32,[6],2
same,MIC50,[7],0.12 µg/mL
same,No. of strains with MBC/MIC value of: 1,S. aureus,0
same,No. of strains with MBC/MIC value of: 2,S. aureus,0
same,No. of strains with MBC/MIC value of: 4,S. aureus,0
same,No. of strains with MBC/MIC value of: 8,S. aureus,0
same,No. of strains with MBC/MIC value of: 16,S. aureus,0
same,No. of strains with MBC/MIC value of: ≧32,S. aureus,10
same,Antimicrobial activity (time kill curve),E. faecalis (ATCC 29212),Static
same,MIC Range,[8],≦0.008-2 μg/ml
"CC[C@H]1OC(=O)[C@H](C)[C@@H](O[C@H]2C[C@@](C)(OC)[C@@H](O)[C@H](C)O2)[C@H](C)[C@@H](O[C@@H]2O[C@H](C)C[C@H](N(C)C)[C@H]2O)[C@](C)(OC)C[C@@H](C)C(=O)[C@H](C)[C@@H](O)[C@]1(C)O [CLR, clarithromycin]",Antimicrobial activity (time kill curve),[1],Static
same,Antimicrobial activity (time kill curve),S. pyogenes,Cidal at 8X only (slow killing)
same,No. of strains with MBC/MIC value of: 1,[2],0
same,No. of strains with MBC/MIC value of: 2,[2],0
same,No. of strains with MBC/MIC value of: 4,[2],0
same,No. of strains with MBC/MIC value of: 8,[2],0
same,No. of strains with MBC/MIC value of: 16,[2],0
same,No. of strains with MBC/MIC value of: ≧32,[2],4^b
same,No. of strains with MBC/MIC value of: 1,[3],0
same,No. of strains with MBC/MIC value of: 2,[3],0
same,No. of strains with MBC/MIC value of: 4,[3],1
same,No. of strains with MBC/MIC value of: 8,[3],0
same,No. of strains with MBC/MIC value of: 16,[3],0
same,No. of strains with MBC/MIC value of: ≧32,[3],3^b
same,Cs,[4],1.68 ×MIC
same,"Cs, static concentration at 24 h",[4],~0.86 mg/L
same,EC50,[4],0.093 ×MIC
same,No. of strains with MBC/MIC value of: 1,Enterococcus spp.,0
same,No. of strains with MBC/MIC value of: 2,Enterococcus spp.,0
same,No. of strains with MBC/MIC value of: 4,Enterococcus spp.,0
same,No. of strains with MBC/MIC value of: 8,Enterococcus spp.,0
same,No. of strains with MBC/MIC value of: 16,Enterococcus spp.,0
same,No. of strains with MBC/MIC value of: ≧32,Enterococcus spp.,2^b
same,Antimicrobial activity (time kill curve),S. mitis (112-1885A),Cidal at 8X only (slow killing)
same,EC50,S. aureus ATCC 25923,1.59 ×MIC
same,Emax,S. aureus ATCC 25923,−1.41 log10 CFU
same,No. of strains with MBC/MIC value of: 1,[6],0
same,No. of strains with MBC/MIC value of: 2,[6],0
same,No. of strains with MBC/MIC value of: 4,[6],1
same,No. of strains with MBC/MIC value of: 8,[6],1
same,No. of strains with MBC/MIC value of: 16,[6],0
same,No. of strains with MBC/MIC value of: ≧32,[6],2^b
same,No. of strains with MBC/MIC value of: 1,S. aureus,0
same,No. of strains with MBC/MIC value of: 2,S. aureus,0
same,No. of strains with MBC/MIC value of: 4,S. aureus,0
same,No. of strains with MBC/MIC value of: 8,S. aureus,0
same,No. of strains with MBC/MIC value of: 16,S. aureus,0
same,No. of strains with MBC/MIC value of: ≧32,S. aureus,6^b
same,Antimicrobial activity (time kill curve),E. faecalis (ATCC 29212),Static
"CC[C@H]1OC(=O)[C@H](C)[C@@H](O[C@H]2C[C@@](C)(OC)[C@@H](O)[C@H](C)O2)[C@H](C)[C@@H](O[C@@H]2O[C@H](C)C[C@H](N(C)C)[C@H]2O)[C@](C)(O)C[C@@H](C)CN(C)[C@H](C)[C@@H](O)[C@]1(C)O [AZI, azithromycin]",Antimicrobial activity (time kill curve),[1],Static
same,Cs,[4],>100 ×MIC
same,EC50,[4],0.22 ×MIC
same,Antimicrobial activity (time kill curve),S. mitis (112-1885A),Cidal at 4X and 8X (slow killing)
same,Cc/Ce (24 h),THP-1 macrophages; Verapamil (100 μM),216.37 ± 46.6^(a)
same,EC50,S. aureus ATCC 25923,3.55 ×MIC
same,Emax,S. aureus ATCC 25923,−1.23 log10 CFU
same,reduction of CFU,[9],no consistent activity was detected
same,Antimicrobial activity (time kill curve),E. faecalis (ATCC 29212),Static
same,time to reach the antibacterial effect,S. aureus (ATCC 25923),5 h
"CC[C@H]1OC(=O)[C@@](C)(F)C(=O)[C@H](C)[C@@H](OC2OC(C)CC(N(C)C)C2O)[C@@](C)(OC)C[C@@H](C)C(=O)[C@H](C)[C@H]2N(CCCCn3cc(-c4cccc(N)c4)nn3)C(=O)O[C@]12C (stereo partly shown) [CEM-101, 11-N-4-(3-aminophenyl)-[1,2,3]triazol-1-yl]-butyl}-5-desosaminyl-3-oxo-2-fluoro-erythronolide A,-11,12-cyclic carbamate]",Cs,[4],0.35 ×MIC
same,EC50,[4],0.11 ×MIC
same,Static dose,[4],~0.02 mg/L
same,time for release of half of the cell-associated drug (efflux),"THP-1 macrophages; cells incubated with 10 mg/L for 1 h, then drug-free medium",approximately 10 min
same,MIC50,[5],0.015 µg/mL
same,MIC90,[5]; BHS (100),0.03 µg/mL
same,MIC90,[5]; streptococci (BHS and VGS),0.03 to 0.06 µg/mL
same,MIC50,[7],0.06 µg/mL
same,MIC90,[7],> 16 µg/mL
same,Antimicrobial activity (time kill curve),E. faecalis (ATCC 29212),Static
same,time to reach the antibacterial effect,S. aureus (ATCC 25923),1 h
same,MIC Range,[8],≦0.008-0.12 μg/ml

# Source: US9901592B2 (priority 2008, dated 2018)
